Measurements: PubChem BioAssay AID485313 (National Center for Advancing Translational Sciences (NCATS), 2010)
About 7,600 (2.4%) of roughly 320,000 compounds were called active. Inconclusive results, whose numbers are uncertain, are shown with a selection of clear calls. The call rests on the fitted dose curve; in most records, active means well fitted activation curve with a large enough effect; inconclusive means small, poorly fitted or top-dose-only effect; inactive means no such curve, though single readings can be large or run the other way. Potencies of inconclusive entries are doubtful fits and often do not repeat.

Assay: qHTS Assay for NPC1 Promoter Activators; further: nearly all actives have a fitted effect of over 60% in size;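 on activation: reporter is driven by a mutant NPC1 promoter; % of control where 0% means no effect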
Conditions: Huh7 NPC1 promoter luciferase reporter, 24 h; series mostly up to 9.22 µM; activation: at the top concentration
Outline: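 Cells: Huh7 expressing luciferase under the NPC1 promoter, 1500/well. Seeded 2 h, compound added, incubated 24 h at 37 °C. Luciferase reagent, 10 min ambient, then luminescence.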
Potency means the concentration at half of the fitted maximal effect; tags describe the fitted curve by direction and shape.

Potency, inconclusive:
O=[N+]([O-])c1ccccc1N/N=C/c1cc2ccccc2nc1Cl 5.62 µM [activator, single point], Cc1ccccc1C(=O)O/N=C(\N)c1cccc([N+](=O)[O-])c1 6.31 µM [activator, single point], O=C(NC(=S)Nc1ccc(Br)cn1)c1cccnc1 2.82 µM [activator, partial curve], Cc1ccc(NC(=O)CCC(=O)c2cccs2)c(O)c1 5.62 µM [activator, single point], O=C(N/N=C/c1cccs1)c1cccc2cc[nH]c12 4.47 µM [activator, partial curve], CCSc1nnc(NC(=O)c2cccnc2)s1 3.55 µM [activator, partial curve], CCN(C(=O)c1ccco1)c1nnc(-c2ccc(OC)cc2)s1 2.24 µM [activator, partial curve], CCn1c(SCC(=O)Nc2ccc(C(C)=O)cc2)nc2ccccc21 3.98 µM [activator, partial curve], Cc1nc(-c2ccc(C(=O)Nc3cccc(Br)c3)cc2)cs1 0.562 µM [activator, partial curve], O=C(NNC(=O)c1ccccc1O)c1ccco1 3.98 µM [activator, partial curve], COc1ccc(-n2nnnc2-c2nc3ccccc3s2)cc1 5.62 µM [activator, single point], Cc1nc2ccc(NC(=S)NC3CCCCC3)cc2nc1C 3.16 µM [activator, partial curve], O=[N+]([O-])c1cccc(NN=Nc2ccccc2)c1 5.62 µM [activator, single point], COc1ccccc1NC(=O)C(=O)c1cn(CC(=O)N2CCOCC2)c2ccccc12 5.01 µM [activator, single point], CCN(CC)C(=O)CSc1ncnc2c(-c3cccs3)nsc12 3.55 µM [activator, partial curve], CC(=O)c1sc(N/N=C\c2ccc(Br)cc2)nc1C 3.16 µM [activator, single point], Cc1ccc(NC(=O)C2C3CCCCC32)cc1[N+](=O)[O-] (stereo not given) 2.82 µM [activator, partial curve], Oc1ccccc1/C=N/N1CCN(c2ccccn2)CC1 3.16 µM [activator, partial curve], Cc1cc(OCCN2CCOCC2)ccc1[N+](=O)[O-] 2.82 µM [activator, partial curve], CN/N=C(\Cc1nc2ccccc2[nH]1)c1ccc([N+](=O)[O-])cc1 3.98 µM [activator, single point], O=c1sc2ccccc2n1CCOc1ccccc1 2.24 µM [activator, partial curve], CC(=O)Nc1nc(-c2ccc3c(c2)CCN3S(C)(=O)=O)cs1 3.55 µM [activator, partial curve], c1ccc(-c2cnc(-c3cccnc3)o2)cc1 3.16 µM [activator, single point], Cc1cc(C)cc(C(=O)O/N=C(\N)c2ccc(Br)cc2)c1 1.41 µM [activator, partial curve], COc1ccc2oc(C(=O)Nc3nnc(C)s3)c(C)c2c1 0.631 µM [activator, full curve], Cc1cccc(OCC(=O)O/N=C(\N)c2ccccn2)c1C 2.82 µM [activator, partial curve], CCCCn1nnc(NC(=O)c2ccc(-c3ccccc3)cc2)n1 3.16 µM [activator, partial curve], O=C(Nc1ccc2c(c1)OCO2)c1cncc(Br)c1 2.51 µM [activator, partial curve], COc1ccc(C(=O)NC(=S)NC2CCCCC2)cc1 3.55 µM [activator, partial curve], Cc1ccc(-c2cc(C(=O)n3cnc4ccccc43)c3ccccc3n2)cc1C 2.51 µM [activator, partial curve], CCCc1cc(C(=O)NCc2cccs2)no1 2.51 µM [activator, partial curve], CCOC(=O)C1CCCN(C(=O)c2ccc3nc(-c4cccc(OC)c4)oc3c2)C1 (stereo not given) 0.316 µM [activator, full curve, poor fit], O=C(Cc1ccccc1F)Nc1nc(-c2cccs2)cs1 5.01 µM [activator, single point], Clc1ccc(-c2noc(CN3CCCC3)n2)cc1 5.62 µM [activator, single point], O=C(CSc1ccc(-c2ccc(-n3cccn3)cc2)nn1)Nc1ccc([N+](=O)[O-])cc1 2.82 µM [activator, partial curve], Cc1cccc(NC(=S)N2N=CCC2c2ccccc2)c1 (stereo not given) 3.16 µM [activator, partial curve], CC(=O)Nc1ccc(NC(=O)c2cccc(-c3cc4ccccc4oc3=O)c2)cc1 3.55 µM [activator, partial curve], CC(C)Oc1ccc(C(=O)Nc2ccc(NC(=O)c3ccco3)c(Cl)c2)cc1 5.62 µM [activator, single point], COC(=O)c1c(-c2ccc(SC)cc2)sc2ccccc12 3.16 µM [activator, single point], CN(C)c1oc(/C=C/c2ccccc2)nc1C#N 5.62 µM [activator, single point], COCCNc1oc(/C=C/c2ccccc2)nc1C#N 4.47 µM [activator, single point], Cc1cc(C(=O)CN2CCCC(C)C2)c(C)n1-c1ccc(F)cc1 (stereo not given) 2.82 µM [activator, partial curve], O=[N+]([O-])c1ccc(/C=N/Nc2ccc3ccccc3c2)o1 5.62 µM [activator, single point]

Potency, active:
S=c1[nH]c(-c2ccccc2)cn1/N=C/c1cccs1 1.41 µM, Cc1cccc(NC(=O)c2cnc3n(c2=O)CCS3)c1 3.55 µM, O=C(Cc1ccccc1)N/N=C/c1ccc2c(c1)OCO2 2.51 µM, O=C(Nc1ccc(CN2CCOCC2)cc1)c1ccc2ccccc2c1 1 µM, Oc1cccc(Nc2ncnc3c2oc2ccccc23)c1 3.55 µM, CC(C)CN1C(=O)c2ccc(C(=O)Nc3ccccc3C(=O)O)cc2C1=O 2.51 µM, COc1ccccc1N1CCN(c2ccc3ccccc3n2)CC1 0.316 µM, CC(C)c1ccc(/C=C/C(=O)Nc2nncs2)cc1 0.891 µM, Cc1nc(Nc2ccccc2)sc1-c1ccccc1 1.26 µM, Clc1ccc(/C=C/c2nc3ccccc3[nH]2)c(Cl)c1 0.708 µM, O=C(Nc1nccs1)c1ccc(-c2ccccc2Cl)o1 2.51 µM, COc1ccc(-c2cc(=O)c3ccccc3s2)cc1 1.41 µM, O=C(N/N=C/c1ccc2c(c1)OCO2)c1ccc2c(c1)OCO2 2.24 µM, Cc1ccc(Nc2nc3ccccc3s2)cc1 1 µM, O=C(c1cc(COc2ccc(F)cc2Cl)on1)N1CCCCCC1 1.78 µM, N#Cc1c(NC(=O)c2nc3ncccn3n2)sc2c1CCCCC2 1.78 µM, Cc1ccc2c(CC(=O)N3CCc4ccccc43)coc2c1 3.55 µM

activation, inactive:
COC(=O)c1[nH]c2ccc(C)cc2c1NC(=O)C1=COCCO1 0.124%, COc1ccc(OC)c(N(/C(N)=N/c2nc(C)cc(C)n2)S(=O)(=O)c2ccc(NC(C)=O)cc2)c1 -9.43%, CCNC(=O)COC(=O)c1cccc(Br)c1 0.0903%, Cc1ccc(-c2nn(-c3ccccc3)cc2C(=O)O)o1 1.13%, O=C(Cc1ccc(Cl)cc1)Nc1ccc(-c2cc3ccccc3oc2=O)c(Cl)c1 -25.6%, O=C(NC(Cc1cccc(F)c1)C(=O)O)C1CCCCC1 (stereo not given) -2.09%, O=S(=O)(NCCCN1CCOCC1)c1ccc(F)c(Cl)c1 -5.25%, COc1ccc(NC(=O)CSc2ccccn2)cc1 21%, CCNC(=O)NC(=O)C(C)OC(=O)C(C)(C)Oc1ccc(Cl)cc1 (stereo not given) -1.77%, COc1ccccc1C(=O)NCC(=O)OCc1csc(-c2ccccc2)n1 1.07%, Cc1cccc(NC(=O)CN2CCC(C(=O)c3ccc4c(c3)OCCO4)CC2)c1 -1.03%, CC1=CS(=O)(=O)CC1SC(=S)N(C)C1CCS(=O)(=O)C1 (stereo not given) -2.83%, CCCS(=O)(=O)NCCc1csc(-c2ccc(OC)c(OC)c2)n1 -0.674%, COc1ccc(NC(=O)c2cccc(-n3cnnn3)c2)cc1 -0.691%, O=C(c1ccccc1Cl)N1N=C(c2cccs2)CC1c1cccc(O)c1 (stereo not given) -4.36%, O=C(Nc1cccc(-c2nn[nH]n2)c1)c1ccc(Cl)s1 -1.24%, COc1cc(C(=O)NCc2ncccc2C)ccc1OC1CCN(C(C)=O)CC1 -0.115%, CS(=O)(=O)c1ccc2nc(NC(=O)c3cc(-c4ccccc4)nn3-c3ccccc3)sc2c1 -3.36%, COc1ccc(NC(=O)N/C=C/c2ccc(Cl)cc2)cc1 -1.33%, Cc1cccc(N=C2NC(=O)/C(=C/c3cccn3C)S2)c1 9.83%
